Measurements published in paper PMC2082042.
Results are given in words; binding and its absence hold for the method and conditions named. For part of these data: Binding seen in cells or lysates may run through a third protein. Some binding calls cover weakened binding; strength is not graded here. For part of these data: Where a sequence is shown, tags or fusion partners need not be part of it. Values belong to the binder of their own block, whether it stands above or below them.

Legend:
[1] = target: T1, HA-tagged full-length mouse TBP (pCMV-HA-TBP-FL) (mouse) (UniProt P29037); assay: co-IP; 293 cells co-transfected with pCMV-HA-TBP-FL and pCMV-MYC-HAP1; lysate precipitated with anti-TBP NC rabbit polyclonal antibody or a non-specific antibody, washes with 300 mM NaCl, 2% TX-100; blot with anti-MYC
T1 sequence: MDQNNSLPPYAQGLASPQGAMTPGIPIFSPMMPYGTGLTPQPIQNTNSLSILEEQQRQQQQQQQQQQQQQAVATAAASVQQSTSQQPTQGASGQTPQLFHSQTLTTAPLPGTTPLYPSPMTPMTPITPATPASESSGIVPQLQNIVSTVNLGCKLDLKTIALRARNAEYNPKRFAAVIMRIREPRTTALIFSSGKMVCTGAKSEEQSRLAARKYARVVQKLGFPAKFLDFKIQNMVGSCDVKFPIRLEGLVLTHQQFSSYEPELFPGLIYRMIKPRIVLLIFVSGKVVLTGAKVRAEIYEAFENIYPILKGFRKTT

[2] = target: T2, FLAG-tagged GFP-TBP fusion protein (pFLAG-CMV-GFP-TBP-FL) (mouse) (UniProt P29037); assay: co-IP; COS-7 cells co-transfected with pFLAG-CMV-GFP-TBP-FL or pFLAG-CMV-GFP and pCMV-MYC-HAP1-B(155–582); lysate precipitated with anti-FLAG M2 or a non-specific antibody, washes with 300 mM NaCl, 2% TX-100; blot with anti-MYC
T2 sequence: T1 sequence

[3] = target: T3, TBP-C (TBP_(CORE) clone, amino acids 134-316), Gal4 DNA-binding domain bait (mouse) (UniProt P29037); assay: two-hybrid; two-component tests: TBP baits (pDBLeu) with the HAP1 random-primed or oligo(dT)-primed prey clone (pPC86) co-transformed into MaV203; streaked on SC-L-W, SC-L-W-H + 75 mM 3-AT and SC-L-W-H-U
T3 sequence: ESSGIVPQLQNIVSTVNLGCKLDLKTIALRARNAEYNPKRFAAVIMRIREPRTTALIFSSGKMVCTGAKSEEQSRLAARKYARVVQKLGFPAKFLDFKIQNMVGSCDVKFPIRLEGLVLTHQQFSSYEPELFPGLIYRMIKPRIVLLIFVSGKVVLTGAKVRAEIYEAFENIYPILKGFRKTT

[4] = target: T4, TBP-FL (full-length mouse TATA-binding protein), Gal4 DNA-binding domain bait (mouse) (UniProt P29037); assay: as above
T4 sequence: T1 sequence

[5] = target: T5, TBP-N (TBP N terminus clone, amino acids 1-136), Gal4 DNA-binding domain bait (mouse) (UniProt P29037); assay: as above
T5 sequence: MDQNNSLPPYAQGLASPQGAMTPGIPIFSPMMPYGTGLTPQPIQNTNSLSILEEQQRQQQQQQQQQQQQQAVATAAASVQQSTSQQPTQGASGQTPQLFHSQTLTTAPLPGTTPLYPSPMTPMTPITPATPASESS

[6] = target: T4, TBP-FL (full-length mouse TATA-binding protein), Gal4 DNA-binding domain bait (mouse); assay: two-hybrid; library screens: TBP-FL as Gal4 DBD bait (pDBLeu) against mouse placenta + pregnant uteri cDNA prey libraries in pPC86 (screen 1 oligo(dT)-primed, screen 2 random-primed); S. cerevisiae MaV203; SC-L-W-H-U, SC-L-W-H + 3-AT and LacZ
[7] = target: T3, TBP-C (TBP_(CORE) clone, amino acids 134-316), Gal4 DNA-binding domain bait (mouse); assay: two-hybrid; HAP1 deletion series (pPC86) with pDBLeu-mTBP-N, pDBLeu-mTBP-C or empty pDBLeu in MaV203; three clones of each; SC-L-W-H + 75 mM 3AT and SC-L-W-H-U (legend of Fig. 4: SC-L-W-H + 50 mM 3-AT)
[8] = target: T5, TBP-N (TBP N terminus clone, amino acids 1-136), Gal4 DNA-binding domain bait (mouse); assay: as above

B3: HAP1-B_(155–582) (random-primed mouse HAP1 clone), Gal4 activation domain prey (domain or fragment, UniProt O35668 155-582)
chain: EKERDLNTAARIGQSLVKQNSVLMEENNKLETMLGSAREEILHLRKQVNLRDDLLQLYSDSDDDDDEEDEEDEEEGEEEEREGQRDQDQQHDHPYGAPKPHPKAETAHRCPQLETLQQKLRLLEEENDHLREEASHLDNLEDEEQMLILECVEQFSEASQQMAELSEVLVLRLEGYERQQKEITQLQAEITKLQQRCQSYGAQTEKLQQMLASEKGIHSESLRAGSYMQDYGSRPRDRQEDGKSHRQRSSMPAGSVTHYGYSVPLDALPSFPETLAEELRTSLRKFITDPAYFMERRDTHCREGRKKEQRAMPPPPAQDLKPPEDFEAPEELVPEEELGAIEEVGTAEDGQAEENEQASEETEAWEEVEPEVDETTRMNVVVSALEASGLGPSHLDMKYVLQQLSNWQDAHSKRQQKQKVVPKDSPTP
binding [3]: binds
binding [4]: binds
binding [5]: no binding
binding [6]: binds

B4: HAP1 amino acids 157–261, Gal4 activation domain prey (domain or fragment, UniProt O35668 157-261)
chain: ERDLNTAARIGQSLVKQNSVLMEENNKLETMLGSAREEILHLRKQVNLRDDLLQLYSDSDDDDDEEDEEDEEEGEEEEREGQRDQDQQHDHPYGAPKPHPKAETA
binding [7]: binds
binding [8]: no binding

B5: HAP1_(238–479), Gal4 activation domain prey (domain or fragment, UniProt O35668 238-479)
chain: QRDQDQQHDHPYGAPKPHPKAETAHRCPQLETLQQKLRLLEEENDHLREEASHLDNLEDEEQMLILECVEQFSEASQQMAELSEVLVLRLEGYERQQKEITQLQAEITKLQQRCQSYGAQTEKLQQMLASEKGIHSESLRAGSYMQDYGSRPRDRQEDGKSHRQRSSMPAGSVTHYGYSVPLDALPSFPETLAEELRTSLRKFITDPAYFMERRDTHCREGRKKEQRAMPPPPAQDLKPPED
binding [7]: no binding
binding [8]: no binding

B6: HAP1 amino acids 473–582, Gal4 activation domain prey (domain or fragment, UniProt O35668 473-582)
chain: DLKPPEDFEAPEELVPEEELGAIEEVGTAEDGQAEENEQASEETEAWEEVEPEVDETTRMNVVVSALEASGLGPSHLDMKYVLQQLSNWQDAHSKRQQKQKVVPKDSPTP
binding [7]: binds
binding [8]: no binding

Further lines, results first:

binding [1]: binds
B1: MYC-tagged HAP1-B_(155–582) (pCMV-MYC-HAP1), expressed in 293 cells (domain or fragment, UniProt O35668 155-582)
chain: B3 chain

binding [2]: binds
B2: MYC-tagged HAP1-B_(155–582) (pCMV-MYC-HAP1-B_(155–582)), expressed in COS-7 cells (domain or fragment, UniProt O35668 155-582)
chain: B3 chain
